# Assay results from the supplement of paper PMC3334620.
# In all, about 33,000 sequences were measured (“E-score (-0.5 to 0.5)”: median about -0.016, highest 2% from about 0.32 on). The list shows a part of the results.
# Target: T1, Stp1 (UniProt B3LFK1)
# T1 sequence: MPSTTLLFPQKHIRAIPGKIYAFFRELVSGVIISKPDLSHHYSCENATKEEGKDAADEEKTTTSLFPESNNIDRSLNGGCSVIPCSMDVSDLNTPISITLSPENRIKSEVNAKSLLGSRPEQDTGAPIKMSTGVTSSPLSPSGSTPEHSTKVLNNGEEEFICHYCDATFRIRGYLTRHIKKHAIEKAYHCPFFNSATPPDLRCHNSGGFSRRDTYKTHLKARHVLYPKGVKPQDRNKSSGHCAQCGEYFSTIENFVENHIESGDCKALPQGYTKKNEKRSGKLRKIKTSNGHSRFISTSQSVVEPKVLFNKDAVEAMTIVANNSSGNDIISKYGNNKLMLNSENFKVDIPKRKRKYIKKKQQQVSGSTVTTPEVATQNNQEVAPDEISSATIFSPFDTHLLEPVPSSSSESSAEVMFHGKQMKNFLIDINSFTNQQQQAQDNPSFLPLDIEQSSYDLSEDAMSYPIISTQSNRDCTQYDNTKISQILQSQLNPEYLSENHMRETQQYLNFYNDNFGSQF
# Experiment: PBM E-score (8-mer binding enrichment) (E-score (-0.5 to 0.5)); higher = stronger / more preferred TF binding; most listed sequences are background and not binding sites
# Conditions: protein concentration: 200 nM; construct: GST-full length
# Procedure, shortened: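 Bound GST-tagged yeast transcription factors, applied at about 100-200 nM to double-stranded universal all-10-mer Agilent arrays, were detected with fluorescent anti-GST. Scans were normalised with masliner. A modified Wilcoxon-Mann-Whitney statistic, the E-score, was assigned to each ungapped eight-base word pooled with its reverse complement by the Universal PBM Analysis Suite.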
row,Sequence,PBM E-score
1,AGCAATAC,0.0561
2,ACTTTCCG,-0.0744
3,ATCAATTA,0.202
4,AATCTTAT,0.06
5,AACATGTA,0.103
6,AATGTAGT,0.0282
7,ACTTGAGA,-0.0195
8,TCTACAAA,0.0554
9,CTAGTTGC,-0.0422
10,GCGCACAA,0.211
11,AAGAATAT,-0.125
12,GAGCGATA,-0.0856
13,ACAGTGCG,-0.022
14,ACTCCTCG,0.0174
15,ATCTGATG,-0.188
16,ATACCATC,0.00132
17,CCTTGTTA,0.17
18,GCGGAAAC,-0.179
19,ATAATCGG,0.135
20,ACGGTGTA,0.0306
21,CGTCCCCC,-0.284
22,AGTCGTTA,0.0149
23,TCCGTACA,0.207
24,TAACGAAA,0.251
25,AGGCAGTA,0.0386

row,Sequence,PBM E-score
1,GGCAACAC,0.204
2,GAACATAC,0.102
3,ACAAAAAC,0.0472
4,GTATCTAA,0.15
5,CGCAGATA,0.036
6,ATCTCGAC,-0.0813
7,GAATGGCA,0.312
8,CAGGAGGA,-0.193
9,GACTACAA,0.0696
10,ACGAGCGA,0.0494
11,ATCTTAGA,0.194
12,ATTATGTA,0.109
13,GATATGAA,0.149
14,AGACGGAG,-0.0904
15,ATACGCTA,-0.152
16,CCGTTACC,-0.139
17,CACAGCGA,0.0696
18,CATAATGG,-0.0722
19,GTCGAATA,-0.134
20,ACTCTTCA,0.0095
21,CGTCTCTC,-0.00169
22,ACCGGTTG,-0.181
23,ACGTCTGG,0.0464
24,GTGACGCA,0.0085
25,AAGTATAC,0.0791

row,Sequence,PBM E-score
1,ACTTGAAC,0.0394
2,ACTCCCCC,-0.235
3,ACCAGTCT,-0.123
4,CACTAATG,0.022
5,AGACAGAT,-0.049
6,AGCAATGC,0.167
7,AGATGGGA,-0.204
8,AGTCGATA,-6e-05
9,ATAAGGCC,0.0529
10,AGTCTGGG,-0.352
11,AACACGGC,0.449
12,AACTCTTG,-0.08
13,GTAAAAAA,0.134
14,TGGCTAAA,0.0721
15,GTGCGCCA,0.00273
16,GATCAAAA,0.0871
17,CGACGTTC,-0.214
18,AAACGAAG,0.0289
19,ATTCCTAA,0.0731
20,CTCTGCAA,-0.053
21,TGTCATAA,0.0898
22,GCGACTCC,-0.294
23,AACGTCAC,-0.0926
24,GGATTATA,0.0566
25,GGGCGCAA,0.169

row,Sequence,PBM E-score
1,GGCTAAAC,-0.049
2,TGGTTGAA,-0.104
3,GATAAATA,0.138
4,CACCGAAG,0.0689
5,ATGATCCC,-0.0931
6,AAATTCAC,0.224
7,AGTTCGAG,-0.0423
8,AACTCCGC,-0.152
9,CAGACCTA,-0.103
10,CCTTAGTA,-0.0395
11,CAACGACA,0.0449
12,CGCGGGTC,0.214
13,ACGGGGAG,-0.0206
14,CGTAACAG,0.0445
15,ATTCAAAG,-0.0722
16,CGGAGCAC,0.0182
17,CGCAAGGC,0.388
18,ATCCTACA,-0.0594
19,ATCATGCG,0.0666
20,CAGACCCC,-0.381
21,ACCTCTGG,-0.2
22,AAACCCTA,-0.104
23,CGCTCATA,0.0012
24,AGATACCC,-0.106
25,AAGCCCGG,-0.298

row,Sequence,PBM E-score
1,GACGAATC,0.0357
2,AGTAACAG,-0.0252
3,GAACGATA,-0.0613
4,ACATGAGC,-0.0781
5,CGGGGGCA,-0.209
6,CAACCAAG,0.0324
7,CTCGAAAA,0.0859
8,CAAAAACG,0.0607
9,ATGCCCAC,0.144
10,CGGTTCTA,0.15
11,CTCCAACC,0.00283
12,CACCGCCA,-0.17
13,GCGTCGCC,0.21
14,CAATTGCC,0.0963
15,GGATCACA,0.00764
16,CCCCAGGG,-0.162
17,TAGAGAGA,-0.0644
18,GTGATAAC,-0.0988
19,ACAAATCA,0.141
20,AGAGATGG,0.0839
21,AGCTCAGC,-0.314
22,AACCATCG,0.0301
23,ACGCAGGG,-0.127
24,CGTTTAAG,0.0149
25,AAGCGGGG,-0.0958

row,Sequence,PBM E-score
1,CGCACTGC,0.22
2,CTCGGTGC,0.0846
3,AAATTTAC,0.171
4,GAAAAACC,0.145
5,CAGTTAGG,-0.125
6,AGTCTTAG,-0.106
7,AAATAGGG,-0.0486
8,GGCACTTA,0.243
9,TACGCCGA,0.142
10,CTCACGGC,0.282
11,ATTGTACC,0.0595
12,CACAGCTG,-0.0909
13,GGTACCGA,-0.258
14,CCGGCCCC,-0.348
15,GTTATACA,0.0473
16,GAACAGTA,0.11
17,GGGTAAAC,-0.115
18,CAGAATGG,-0.0168
19,ACCAGGGT,-0.398
20,ACCTTGAG,-0.0698
21,AGACGTCT,-0.219
22,AAATGTGT,0.158
23,AGCGAATA,0.00608
24,CTGATGTA,-0.0384
25,TCAATGCA,-0.0548

row,Sequence,PBM E-score
1,GTGAATCA,-0.128
2,AACTGTAC,-0.0967
3,GTAATTCA,0.196
4,GCCATGAC,-0.218
5,AAGCTATC,0.039
6,AAAAGCGT,-0.00328
7,CAGGAACG,0.0246
8,ATGTACGA,-0.0524
9,ACGGGTAG,0.0167
10,CGACAGGC,-0.0711
11,ACCTCCAG,-0.105
12,ATGAAGTG,0.0265
13,GTAACCGA,-0.0281
14,ATCAGTGC,-0.0307
15,CTGAGAGA,-0.143
16,AGCGCTCC,-0.103
17,GGAGCACA,-0.122
18,ATGGTGTA,-0.108
19,GGTGCGTA,-0.113
20,AAAATTTG,0.0391
21,AACACGCG,0.127
22,AGCGTAAA,0.0234
23,ATGCTAAA,-0.0375
24,CAAAAATC,-0.00222
25,CCACAGCA,0.155

row,Sequence,PBM E-score
1,CATCTTGC,0.152
2,ACCGCAAT,0.133
3,AGATAACT,-0.103
4,ATTTGCCA,-0.0687
5,CATATGCC,0.0974
6,GCGGATCA,0.123
7,TCTCACCA,0.00991
8,GGTCAATA,-0.136
9,ATGGTTCG,-0.0957
10,GAAGGTCC,-0.245
11,ACACCTGG,-0.221
12,CGATGGGA,-0.0937
13,CCAGGGAA,-0.0576
14,GTGTCACA,0.119
15,ACGTTACC,-0.0394
16,TGGGTTAA,-0.219
17,ATTCAATC,0.089
18,GTTCCAGA,-0.0346
19,CGTTGATA,0.293
20,GGGCCAAA,-0.0489
21,CACTGTGG,-0.106
22,TAGACTAA,-0.132
23,AGGAGATG,-0.111
24,GCACATCA,0.042
25,GCAGCAGC,0.0301

row,Sequence,PBM E-score
1,ACGACGCG,0.129
2,ACGTACAG,-0.0778
3,ACCACGCA,-0.187
4,CATACGCC,0.126
5,AGTGACTC,-0.0307
6,AGTTCTAA,-0.0232
7,AACCGACG,0.0748
8,AAACCATC,-0.0403
9,CCCCAATA,-0.0985
10,GAGTTGGC,-0.00796
11,AGTAAGGC,0.163
12,CCGGAAGA,-0.0332
13,ACGTGAGA,-0.0985
14,CTGGATAA,0.0621
15,GCTTTTTA,0.173
16,ACTTATGA,-0.0427
17,AGAGAGTG,-0.168
18,ACCTTGGA,-0.138
19,AAAGGTCC,-0.118
